The values below come from article PMC4336329 (PLoS ONE, 2015).

Among all 310,000 compounds or so, about 2,200 (0.71%) showed an effect of 50% or more. The effect is printed as a negative number. The list shows a part of the results.

The target of this experiment is human ether-à-go-go-related gene (hERG) potassium channel (human, UniProt Q12809). Briefly: primary screen, population patch clamp on CHO cells stably expressing hERG.
Sequence of human ether-à-go-go-related gene (hERG) potassium channel (Q12809 whole entry, looked up): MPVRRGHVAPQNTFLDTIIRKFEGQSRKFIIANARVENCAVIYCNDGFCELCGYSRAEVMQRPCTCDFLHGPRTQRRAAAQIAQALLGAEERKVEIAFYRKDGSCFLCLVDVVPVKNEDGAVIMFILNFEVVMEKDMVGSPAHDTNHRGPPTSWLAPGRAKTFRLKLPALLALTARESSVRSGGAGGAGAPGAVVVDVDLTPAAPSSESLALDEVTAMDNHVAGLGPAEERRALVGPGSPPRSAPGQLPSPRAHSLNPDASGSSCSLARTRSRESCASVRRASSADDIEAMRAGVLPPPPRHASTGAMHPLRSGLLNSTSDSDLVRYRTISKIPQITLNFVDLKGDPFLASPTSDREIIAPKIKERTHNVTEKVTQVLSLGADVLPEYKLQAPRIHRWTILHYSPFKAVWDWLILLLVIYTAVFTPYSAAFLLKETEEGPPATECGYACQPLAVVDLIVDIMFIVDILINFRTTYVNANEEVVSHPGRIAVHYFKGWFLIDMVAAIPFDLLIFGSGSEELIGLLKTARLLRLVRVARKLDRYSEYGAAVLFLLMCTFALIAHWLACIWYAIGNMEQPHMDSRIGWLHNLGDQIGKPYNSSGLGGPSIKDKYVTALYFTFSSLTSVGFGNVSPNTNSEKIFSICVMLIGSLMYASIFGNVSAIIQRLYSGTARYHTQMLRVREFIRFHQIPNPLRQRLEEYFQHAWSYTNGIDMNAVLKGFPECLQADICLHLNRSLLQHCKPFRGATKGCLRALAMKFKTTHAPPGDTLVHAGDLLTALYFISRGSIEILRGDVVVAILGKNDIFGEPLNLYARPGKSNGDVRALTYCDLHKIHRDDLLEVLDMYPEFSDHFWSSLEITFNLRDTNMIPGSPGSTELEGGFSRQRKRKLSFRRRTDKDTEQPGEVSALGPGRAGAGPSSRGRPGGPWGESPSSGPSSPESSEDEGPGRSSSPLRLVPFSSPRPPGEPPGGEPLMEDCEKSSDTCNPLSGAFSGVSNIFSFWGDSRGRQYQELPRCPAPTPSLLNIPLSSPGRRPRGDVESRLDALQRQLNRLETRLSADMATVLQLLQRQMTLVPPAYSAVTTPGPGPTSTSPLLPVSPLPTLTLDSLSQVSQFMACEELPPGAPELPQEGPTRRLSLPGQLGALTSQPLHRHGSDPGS
Regarding `CCc1ccc(-c2nc(CN3CCCC(C(=O)O)C3)c(C)o2)cc1` (centres unmarked), the “hERG current change (%, negative = inhibition) at 1uM” value turned out to be 21.6%. Regarding `Cc1ccc(S(=O)(=O)N[C@H](C(=O)N2CCC(C(=O)N[C@@H](CC(=O)O)C(=O)O)CC2)C(C)C)cc1`, the “hERG current change (%, negative = inhibition) at 1uM” value was 17.2%. Under `Cc1cc(OCC(=O)Nc2ccccc2C(N)=O)c2c(C)cc(=O)oc2c1` stands 2.49%; under `CCOCC(=O)Nc1nnc(COC)s1`, 16.4%. In the case of `Cc1onc(C(=O)Nc2ccc3c(c2)OCO3)c1[N+](=O)[O-]`, the “hERG current change (%, negative = inhibition) at 1uM” value was 13.8%. For the compound `O=C(N=c1ccn(-c2nc3ccccc3nc2NS(=O)(=O)c2ccccc2)cc1)c1cccs1`, the “hERG current change (%, negative = inhibition) at 1uM” value is listed as 11.8%.

In the case of `O=C(CSc1nc(O)cc(=O)n1-c1ccccc1)NC1CCCCC1`, the “hERG current change (%, negative = inhibition) at 1uM” value was 6.52%. Turning to `O=C(c1ccc([N+](=O)[O-])cc1)N1CCSC1c1ccc(Br)cc1` (centres unmarked), the “hERG current change (%, negative = inhibition) at 1uM” value is listed as -3.21%.

As for `C=CCOc1ccc(CN(C)CC(=O)Nc2ccccc2[N+](=O)[O-])cc1.O=C(O)C(=O)O`, the “hERG current change (%, negative = inhibition) at 1uM” value turned out to be 0.586%. Take `COc1ccc(/C=C2\SC(=S)N(CCC(=O)Nc3ccc(C(=O)O)cc3)C2=O)cc1`: the “hERG current change (%, negative = inhibition) at 1uM” value came to 13.9%. In the case of `O=C(NCC1CCCO1)c1cc(S(=O)(=O)N2CCCCC2)ccc1Cl` (centres unmarked), the “hERG current change (%, negative = inhibition) at 1uM” value came to 7.98%. As to `CCCn1c2ccccc2c2cnn(CC(=O)NC3CCCCC3C)c(=O)c21` (centres unmarked), the “hERG current change (%, negative = inhibition) at 1uM” value was 16.4%. Take `O=C(COC(=O)CCNS(=O)(=O)c1ccccc1)NC(=O)c1ccccc1`: the “hERG current change (%, negative = inhibition) at 1uM” value is on record as 9.02%.

Take `Nc1c(C(=O)NCc2ccco2)nnn1CC(=O)Nc1ccccc1`: the “hERG current change (%, negative = inhibition) at 1uM” value is reported as 18.3%.

On to `C=CCOn1c(=O)c(=O)n(OCc2ccccc2)c2ccccc21`, for which the “hERG current change (%, negative = inhibition) at 1uM” value was 3.35%.

For `O=C(CCc1ccc(S(=O)(=O)NCCc2ccccc2)cc1)N1CCN(Cc2ccc3c(c2)OCO3)CC1`, the “hERG current change (%, negative = inhibition) at 1uM” value turned out to be 5.35%. Regarding `O=C(Nc1ncccn1)c1cccc(Cl)c1`, the “hERG current change (%, negative = inhibition) at 1uM” value is 7.76%. Take `Cc1cccc(N2CCN(Cc3cc(=O)n4ccsc4n3)CC2)c1C`: the “hERG current change (%, negative = inhibition) at 1uM” value was -13.4%.

For `CC1CCCN(C2(O)C(=O)Nc3ccc(Cl)cc32)C1` (centres unmarked), the “hERG current change (%, negative = inhibition) at 1uM” value was 16.1%.

In the case of `CC1CC(=O)N(CC(=O)Nc2cccc(Cl)c2)c2ccccc2S1(=O)=O` (centres unmarked), the “hERG current change (%, negative = inhibition) at 1uM” value is given as -3.47%. Turning to `CC1CCN(C(=O)c2ccc(CS(=O)(=O)Cc3ccccc3)cc2)CC1`, the “hERG current change (%, negative = inhibition) at 1uM” value is listed as -12.7%. On to `CCCCCN(C(=O)CCC(=O)OCC(=O)N1CCCCC1)c1c(N)n(CCCC)c(=O)[nH]c1=O`, for which the “hERG current change (%, negative = inhibition) at 1uM” value is 1.2%. As to `Cc1ccc(S(=O)(=O)N2CCCCC2C(=O)N2CCN(C)CC2)cc1` (centres unmarked), the “hERG current change (%, negative = inhibition) at 1uM” value was found to be 15.2%. The same measure for `CCn1cc(C(=O)N2CCN(c3ccc(C(C)=O)cc3)CC2)c2cc(OC)c(OC)cc2c1=O`: 4.16%; for `COC(=O)C1=C(C)NC(=S)NC1c1ccc(OC(=O)c2ccco2)cc1` (centres unmarked): 11%. On to `COc1ccc(NS(=O)(=O)c2coc(C(N)=O)c2)cc1Cl`, for which the “hERG current change (%, negative = inhibition) at 1uM” value stood at 6.23%. In the case of `Cc1cc(NC(=O)CN2C(=O)NC3(CCCCC3)C2=O)no1`, the “hERG current change (%, negative = inhibition) at 1uM” value is 13.8%. As for `c1coc(-c2nn3c(-c4ccco4)nnc3s2)c1`, the “hERG current change (%, negative = inhibition) at 1uM” value is given as -0.125%. `CCN1CCN(S(=O)(=O)c2ccc(Cl)c(C(=O)NC(C)(C)C)c2)CC1`: the “hERG current change (%, negative = inhibition) at 1uM” value is recorded as -7.39%. Under `COc1ccc(C(c2oc(CO)cc(=O)c2O)c2oc(CO)cc(=O)c2O)cc1` stands 12.7%; under `CCN(CC)CCNC(=O)c1ccc(NS(=O)(=O)c2ccc3c(c2)OCCO3)cc1`, 16.1%; under `CCCCOc1ccc(C(=O)Nc2ccc(CN3CCOCC3)cc2)cc1`, 14.3%. With `COC(=O)Cc1c(C)c2c(OCc3nn[nH]n3)cc(C)cc2oc1=O`, the “hERG current change (%, negative = inhibition) at 1uM” value was 10.5%.

Turning to `CCCCOC(=O)Nc1ccc(S(=O)(=O)Nc2ncccn2)cc1`, the “hERG current change (%, negative = inhibition) at 1uM” value is 6.56%. Take `Cc1[nH]c(-c2ccc3c(c2)OCO3)nc1C(=O)O`: the “hERG current change (%, negative = inhibition) at 1uM” value is 14.2%. `Cc1ccc(SCC(=O)NCCCN2CCOCC2)cc1`: the “hERG current change (%, negative = inhibition) at 1uM” value is reported as 16.4%.

Regarding `O=C(COc1ccc2ccccc2c1)NCCn1ccc2ccccc21`, the “hERG current change (%, negative = inhibition) at 1uM” value is 7.11%. Take `O=c1[nH]c(=O)n(-c2cccc(Cl)c2)c(O)c1C=NCCCN1CCOCC1`: the “hERG current change (%, negative = inhibition) at 1uM” value came to 5.7%. Take `O=C(NCc1ccccn1)C1CC(c2ccccc2Cl)=NO1` (centres unmarked): the “hERG current change (%, negative = inhibition) at 1uM” value was 13.8%.

For `CCn1c(C)c(C)c2cc(C(=O)NCCc3ccco3)ccc21`, the “hERG current change (%, negative = inhibition) at 1uM” value was found to be 18.4%. As for `Cc1ccc(NC(=O)N(C2CCCCC2)C(C)c2cccnc2)cc1C` (centres unmarked), the “hERG current change (%, negative = inhibition) at 1uM” value is given as 9.74%. For the compound `Cn1c(COc2ccc(Cl)cc2)nnc1SCC(=O)NC1CCCC1`, the “hERG current change (%, negative = inhibition) at 1uM” value was -4.17%. On to `Cc1sc2nc(CN(CCc3ccccc3)C(=O)c3ccco3)[nH]c(=O)c2c1C`, for which the “hERG current change (%, negative = inhibition) at 1uM” value was 11%. Take `CCc1cc(CNC(=O)c2ccc(OC)c(OC3CCN(C(C)C)CC3)c2)on1`: the “hERG current change (%, negative = inhibition) at 1uM” value is recorded as 3.29%. Under `O=c1cc(Cn2ccnc2)c2cc3c(cc2o1)CCC3` stands 6.99%.

In the case of `CCOC(=O)c1c(C)c(C(=O)N2CCN(C(=O)c3ccco3)CC2)c(C)n1C`, the “hERG current change (%, negative = inhibition) at 1uM” value is reported as -5.61%. For the compound `CCCCC(=O)Nc1cccc(C(=O)Nc2ccccc2C(=O)O)c1`, the “hERG current change (%, negative = inhibition) at 1uM” value came to 15.1%.

Take `CCNC(=O)CC1C(=O)N(CC)C(=S)N1NC(=O)c1ccc(Cl)cc1` (centres unmarked): the “hERG current change (%, negative = inhibition) at 1uM” value is recorded as -17.5%. As for `CCC(=O)N1CCc2cc(Br)cc(S(=O)(=O)N3CCC(C(=O)NC(C)C)CC3)c21`, the “hERG current change (%, negative = inhibition) at 1uM” value stood at 8.18%.

In the case of `CN(C)S(=O)(=O)c1ccc(C(=O)Nc2ccc(F)cc2F)cc1`, the “hERG current change (%, negative = inhibition) at 1uM” value came out at 3.99%. Turning to `O=C(O)C1CC=CCC1C(=O)Nc1ccccc1C(=O)N1CCN(c2ccc(F)cc2)CC1` (centres unmarked), the “hERG current change (%, negative = inhibition) at 1uM” value turned out to be 2.36%. As to `COc1ccccc1OCCNC(=O)C1CC(=O)N(c2cccc(SC)c2)C1` (centres unmarked), the “hERG current change (%, negative = inhibition) at 1uM” value is reported as -4.5%.

Consider `O=C(O)Cc1ccc(NC(=O)c2ccc3c(c2)C(=O)N(CC2CCCO2)C3=O)cc1` (centres unmarked), for which the “hERG current change (%, negative = inhibition) at 1uM” value is recorded as 7.26%. Under `O=C1c2ccccc2C(=O)c2c1ccc(C(=O)N1CCCCC1)c2NCCO` stands -11.5%; under `O=C1CCc2cc(S(=O)(=O)N3CCN(c4ccc(F)cc4)CC3)cc3c2N1CC3`, 5.09%; under `COc1ccc(C(=O)c2ccc(OC)c(N)c2)cc1N`, 1.51%. Under `COc1cc2c(cc1OC)CN(c1ccc([N+](=O)[O-])cc1C#N)CC2` stands -7.03%. Take `Cc1ccc(CNS(=O)(=O)c2c(C)nc3scc(C)n3c2=O)cc1`: the “hERG current change (%, negative = inhibition) at 1uM” value was determined as 11%. Turning to `CC(Cc1ccccc1Sc1ccc(O)cc1)N(C)C.CCO.Cl` (centres unmarked), the “hERG current change (%, negative = inhibition) at 1uM” value is -73.1%.

Take `CCC(=O)NC(c1ccc(OC)cc1)c1c(O)ccc2ccccc12` (centres unmarked): the “hERG current change (%, negative = inhibition) at 1uM” value is -7.87%. As to `COc1ccc(OC)c(N2C(=O)CC(Cc3ccc(Cl)cc3)C2=O)c1` (centres unmarked), the “hERG current change (%, negative = inhibition) at 1uM” value is on record as 6.7%.

`S=C1CCC(c2ccc(Cl)cc2)=NN1c1ccccc1`: the “hERG current change (%, negative = inhibition) at 1uM” value turned out to be 11.9%. Take `Cc1[nH]c2c(Cl)cccc2c(=O)c1CN1CCCC1`: the “hERG current change (%, negative = inhibition) at 1uM” value is 5.95%. Take `O=c1c2cc(NC(=S)NCCN3CCCCCC3)ccc2nc2n1CCCCC2`: the “hERG current change (%, negative = inhibition) at 1uM” value came to 7.57%.

For the compound `O=C(NC(=S)Nc1cccc2cccnc12)c1cccs1`, the “hERG current change (%, negative = inhibition) at 1uM” value came to 8.03%.

Consider `S=c1[nH]ncn1/N=C/c1ccc(N2CCOCC2)cc1`, for which the “hERG current change (%, negative = inhibition) at 1uM” value was determined as 18.8%. The same measure for `Cc1ccc(C)c2[nH]c(=O)c(CCNC(=O)c3ccc(Br)o3)cc12`: 7.83%; for `Cc1ccc(CNC(=O)CSc2ccc(-c3ccco3)nn2)cc1`: -1.64%; for `CC(NC(=O)Cc1cccs1)C(c1cccs1)N1CCN(c2ccccc2)CC1` (centres unmarked): 3.53%. Under `Cc1ccc2nc(SC(C)C(=O)NC3CCCc4ccccc43)[nH]c2c1` (centres unmarked) stands 11.6%; under `CC(OC(=O)c1cc(S(=O)(=O)N(C)c2ccccc2)ccc1Cl)C(=O)Nc1ccc2c(c1)OCCO2` (centres unmarked), 12.6%; under `CCCCNC(=O)C1CC(c2ccccc2[N+](=O)[O-])=NO1` (centres unmarked), 14.5%. For `CCOc1cccc2c1OC1(CCCCC1)N1N=C(c3cccnc3)CC21` (centres unmarked), the “hERG current change (%, negative = inhibition) at 1uM” value stood at 8.98%. Under `CC1CCCC(NC(=O)C2CCN(S(=O)(=O)N3CCCCCC3)CC2)C1C` (centres unmarked) stands 9.63%. Consider `CCN(CC)c1ccc(NC(=O)c2cnccn2)cc1S(=O)(=O)Nc1ccc(OC)cc1`, for which the “hERG current change (%, negative = inhibition) at 1uM” value is on record as -9.2%. Consider `COc1cc(/C=C(\NC(C)=O)C(=O)NC(C)(C)C)ccc1OC(C)=O`, for which the “hERG current change (%, negative = inhibition) at 1uM” value came out at 20.1%. Under `C/C(CC(=O)N(C(C)C)C(C)C)=N\NC(=O)COc1ccc(Br)cc1Br` stands -12.6%; under `CCOC(=O)N1CCN(S(=O)(=O)c2ccc(C(=O)N(CCCN(C)C)c3nc4cc(OC)ccc4s3)cc2)CC1.Cl`, -17.4%; under `Cn1ccnc1SCC(=O)Nc1cccc(S(=O)(=O)N2CCCCC2)c1`, -3.72%.

Take `CN(CC(=O)Nc1cccc(F)c1)C(=O)CSc1nc2ccccc2s1`: the “hERG current change (%, negative = inhibition) at 1uM” value is on record as 5.82%. For the compound `OCC[C@H]1C[C@H](O)[C@@H](O)[C@@]2(OCCCc3ccccc32)O1`, the “hERG current change (%, negative = inhibition) at 1uM” value turned out to be 8.1%.

Consider `Cc1cccc(OCC(O)Cn2c(NCc3cccnc3)nc3c2c(=O)[nH]c(=O)n3C)c1` (centres unmarked), for which the “hERG current change (%, negative = inhibition) at 1uM” value was 16.1%. As to `CS(=O)(=O)c1ccc(Cl)c(NC(=O)COC(=O)CCCN2C(=O)c3cccc4cccc(c34)C2=O)c1`, the “hERG current change (%, negative = inhibition) at 1uM” value came out at 0.589%. Under `Cc1ccc(S(=O)(=O)Cc2ccc(C(=O)N3CCCCCC3)o2)cc1` stands -7.22%. On to `Cc1cccc(N=Nc2c(C)c(C#N)c(O)[nH]c2=O)c1`, for which the “hERG current change (%, negative = inhibition) at 1uM” value stood at 15.6%. Under `CC(C)n1c(SCC(N)=O)nc2c1c(=O)n(C)c(=O)n2C` stands 7.73%.
